# Measured values as given in publication PMC6919601, “Identification of Plasmodium dipeptidyl aminopeptidase allosteric inhibitors by high throughput screening” (PLoS ONE, 2019).
# Among all 110,000 compounds or so, about 230 (0.21%) showed an effect of 50% or more. The list shows a part of the results.
# Target: DPAP1 (Plasmodium falciparum, UniProt Q8IIJ9)
# Assay: primary screen, percent inhibition; read by cleavage of a fluorogenic dipeptide substrate; higher = more effect of the substance
# Parameters: species or system P. falciparum D10 trophozoite lysates; single well
# 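Further: 30 min substrate incubation versus DMSO and 10 µM JCP410 controls.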
# Sequence of DPAP1 (Q8IIJ9 whole entry, looked up): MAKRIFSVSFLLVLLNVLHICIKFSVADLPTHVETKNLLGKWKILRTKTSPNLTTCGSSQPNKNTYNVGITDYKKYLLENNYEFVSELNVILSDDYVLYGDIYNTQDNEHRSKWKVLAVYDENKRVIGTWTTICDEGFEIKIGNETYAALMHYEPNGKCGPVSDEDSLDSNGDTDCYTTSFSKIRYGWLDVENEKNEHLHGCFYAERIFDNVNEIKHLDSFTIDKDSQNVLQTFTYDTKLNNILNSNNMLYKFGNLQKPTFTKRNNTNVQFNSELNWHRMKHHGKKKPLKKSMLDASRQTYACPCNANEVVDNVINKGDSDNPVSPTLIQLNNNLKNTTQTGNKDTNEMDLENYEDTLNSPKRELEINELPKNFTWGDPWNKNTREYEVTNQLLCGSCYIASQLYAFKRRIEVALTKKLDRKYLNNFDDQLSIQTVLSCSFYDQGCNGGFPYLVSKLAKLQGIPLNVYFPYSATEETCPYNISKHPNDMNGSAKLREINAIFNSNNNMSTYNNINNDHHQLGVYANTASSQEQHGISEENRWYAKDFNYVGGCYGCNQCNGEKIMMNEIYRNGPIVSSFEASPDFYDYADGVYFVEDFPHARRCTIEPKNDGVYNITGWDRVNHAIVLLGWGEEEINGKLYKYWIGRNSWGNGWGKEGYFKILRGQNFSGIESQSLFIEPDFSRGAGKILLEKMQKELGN
row,Compound,% Inhibition @ 10 uM [%]
1,O=S(=O)(NCc1csc(-c2ccccc2)n1)c1ccc(Oc2ccccc2)cc1,-0.72
2,Cc1cccc(OCc2nn3c(-c4ccccc4Br)nnc3s2)c1,2.89
3,CCN(CC)c1ccc(C2SC(NC(C)=O)=NN2C(C)=O)cc1 (stereo not drawn),-3.63
4,COc1cc(OC)c(CN2CCC(Cc3ccccc3)CC2)cc1Br,1.38
5,O=C(CCCn1nc(-c2ccccc2)c2ccccc21)NCc1cccnc1,-3.08
6,CC(=O)Nc1ccc(NC(=O)CSCc2ccccc2Cl)cc1,0.343
7,CC12CN(C(=O)Cc3ccccc3)CC(C)(CN(C(=O)Cc3ccccc3)C1)C2=O,3.94
8,CC(=C(C#N)C#N)c1ccc2c(c1)OCO2,-3.98
9,CC(C)(C)c1c(N2CCCCC2)c(=O)c1=O,-3.04
10,O=C(O)C(Cc1ccc(Cl)cc1)NS(=O)(=O)c1ccccc1 (stereo not drawn),12.3
11,COc1ccc(Br)cc1C1=N/C(=C\c2cccc3ccccc23)C(=O)O1,12.7
12,O=C(NC1CC1)c1nc(-c2ccc(C(F)(F)F)cc2)no1,3.68
13,Cc1ccc(-c2csc(/C(C#N)=C/c3ccc(Cl)cc3Cl)n2)c(C)c1,-3.26
14,CCOC(=O)C1=C(CSc2nc3ccccc3[nH]2)NC(=O)NC1c1cc(C)ccc1C (stereo not drawn),-4.49
15,O=S(=O)(c1ccc(Cl)cc1)N1CCN(Cc2ccccn2)CC1,-3.5
16,Cc1ccc2c(c1Br)C(O)(CC(=O)c1ccc3c(c1)OCO3)C(=O)N2 (stereo not drawn),-0.519
17,CCCNC(=O)c1cc2oc3ccccc3c2n1C,6.06
18,COc1ccc(C2=NN(CC(=O)NC3CC3)C(=O)CC2)cc1,4.81
19,CCc1cc(C(=O)COc2ccccc2)c(O)c(CN2CCCC2C(=O)O)c1O (stereo not drawn),3.06
20,COc1ccc(Br)cc1CN1CCN(Cc2ccccc2)CC1,2.27
21,CCOc1ccc(NC(=O)COc2ccc3oc4c(c3c2)CCCC4)cc1,0.472
22,C=CCNc1nc(Cl)nc(NCC(=O)OCC)n1,3
23,CCCOc1ccc(NC(=O)c2ccc([N+](=O)[O-])cc2)cc1,0.00178
24,NC(=S)CN1CCCC1=O,-1.26
25,O=C(COc1ccc(Br)cc1)N1CCOCC1,1.64
26,CCCNC(=O)Cn1ncc2c3ccccc3n(C)c2c1=O,-9.31
27,CCc1c(O)c(I)c(=O)n(-c2ccccc2)c1-c1ccccc1,2.36
28,CCN(CC)C(=O)NCc1noc2ccc(C)cc12,0.257
29,O=C(NCCc1ccccc1)c1ccc(Br)cc1,-1.48
30,COc1cc2c3c(c1)C(C)=CC(C)(C)N3C(=O)C2=O,-2.88
